# According to PubChem BioAssay (Tox21):
# Where “and” joins values, the source holds several entries; their conditions need not be identical. Equal values may be shown once. This list was built around the results that the source calls inconclusive (neither active nor inactive); the mix of calls is not that of the screen. For some assays here: Potencies beside an inconclusive call are fits to weak or partial responses and may not hold up. Calls of active or inactive are those of the source. Unless noted, the call rests on the fitted dose curve; in most records, active means well fitted curve in the direction sought with a large enough effect in the repeat runs; inconclusive means weak or mixed curves; inactive means no such curve, though single readings can be large; an effect the other way counts as inactive or inconclusive.
# How the values were obtained:
# [1] = molecular target: Aryl hydrocarbon receptor (Homo sapiens) (UniProt P35869); assay: qHTS assay to identify small molecule that activate the aryl hydrocarbon receptor (AhR) signaling pathway (AID 743085); further: potency means the concentration at half of the fitted maximal effect; nearly all actives have a fitted effect of over 15% in size
# Chain of UniProt P35869 (P35869 whole entry, looked up): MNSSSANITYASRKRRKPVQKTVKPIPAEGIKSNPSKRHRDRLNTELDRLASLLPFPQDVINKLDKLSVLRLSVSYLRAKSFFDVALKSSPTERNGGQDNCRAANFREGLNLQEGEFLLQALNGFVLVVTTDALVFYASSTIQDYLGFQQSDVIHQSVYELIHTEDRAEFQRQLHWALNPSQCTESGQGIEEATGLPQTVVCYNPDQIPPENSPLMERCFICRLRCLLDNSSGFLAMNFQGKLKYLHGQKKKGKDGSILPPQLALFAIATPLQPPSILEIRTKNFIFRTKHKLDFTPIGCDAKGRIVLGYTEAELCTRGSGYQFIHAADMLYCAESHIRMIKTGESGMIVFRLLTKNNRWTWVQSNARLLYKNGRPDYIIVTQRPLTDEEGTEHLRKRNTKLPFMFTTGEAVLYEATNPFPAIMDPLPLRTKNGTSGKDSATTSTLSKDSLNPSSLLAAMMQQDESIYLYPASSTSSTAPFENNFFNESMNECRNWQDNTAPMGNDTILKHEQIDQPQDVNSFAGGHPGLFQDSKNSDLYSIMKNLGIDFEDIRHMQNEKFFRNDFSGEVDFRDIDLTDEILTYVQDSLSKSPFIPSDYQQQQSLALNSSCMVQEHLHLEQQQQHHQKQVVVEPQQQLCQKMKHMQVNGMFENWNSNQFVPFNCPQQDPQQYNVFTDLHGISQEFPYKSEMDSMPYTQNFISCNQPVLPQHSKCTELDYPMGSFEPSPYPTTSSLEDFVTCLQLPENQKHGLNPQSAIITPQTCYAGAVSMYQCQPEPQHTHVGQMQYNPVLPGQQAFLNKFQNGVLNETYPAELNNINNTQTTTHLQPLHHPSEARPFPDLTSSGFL
# In short: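 Compounds were tested in HepG2 hepatocellular carcinoma cells harbouring a stably integrated luciferase gene under control of 20 DREs. Increased reporter signal after 24 h treatment at 37C was taken as AhR activation.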
# [2] = qHTS assay to identify small molecule antagonists of the estrogen related receptor (ERR) signaling pathway from Tox21 library - cell viability counter screen (AID 1224834); further: nearly all actives have a fitted effect of over 30% in size; further: potency means the concentration at half of the fitted maximal effect
# In short: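 Viability readout (CellTiter-Fluor fluorescence, 30 min at 37 C) multiplexed with the ERR assay; cells treated 17.5 h at 37 C with compounds delivered in DMSO.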
# [3] = A CellTox Green Cytotoxicity Assay to monitor cytotoxicity in HepG2 cells - 32 hour (AID 1224883); further: nearly all actives have a fitted effect of over 50% in size
# In short: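 Continuous culture of HepG2 cells with a membrane-impermeant DNA dye; rising fluorescence marks dead cells. Compound exposure lasted up to 40 h at 37 C, with reads every 8 h from 0 h.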
# [4] = Caspase-3/7 induction in HepG2 cells by small molecules, qHTS cell viability counter screen (AID 1346981); further: potency means the concentration at half of the fitted maximal effect; nearly all actives have a fitted effect of over 30% in size
# In short: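 Counter screen for cytotoxicity: HepG2 exposed 16 hr to compounds, then CellTiter-Fluor viability signal (fluorescence, 1 hr reagent incubation).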
# [5] = qHTS assay to identify small molecule antagonists of the estrogen receptor alpha (ER-alpha) signaling pathway using the BG1 cell line - cell viability counter screen (AID 743081); conditions: BG1Luc4E2 viability, CellTiter-Fluor, 22 h; series mostly up to 70.3 µM;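 further: compound given together with 17beta-estradiol as the ER stimulus; potency means the concentration at half of the fitted maximal effect; nearly all actives have a fitted effect of over 45% in size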
# [6] = qHTS assay to identify small molecule antagonists of the constitutive androstane receptor (CAR) signaling pathway - cell viability counter screen (AID 1224837); further: potency means the concentration at half of the fitted maximal effect; nearly all actives have a fitted effect of over 45% in size
# In short: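 Fluorescence from CellTiter-Fluor served as the viability signal. Human hepatoma HepG2 cells stably bearing hCAR and CYP2B6-2.2kb received compound plus CITCO (50 nM final) for 23 hr.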
# [7] = qHTS assay to identify small molecule agonists of H2AX (AID 1224845; active means well fitted activation curve with a large enough effect in the signal ratio in the repeat runs, not every such curve was filed as active; inconclusive means weak or mixed curves; the % refers to the signal ratio; further: potency means the concentration at half of the fitted maximal effect); conditions: CHO-K1 phospho-H2AX Ser139 HTRF, 3 h; series mostly up to 154 µM
# In short: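 Wild-type CHO-K1 cells plated overnight, then exposed 3 hr at 37C to compounds at 15 concentrations (0.76% DMSO). Lysed, then HTRF anti-pH2AX(S139)-cryptate/anti-H2AX-d2 detection after 24 hr at room temperature; emissions 665 and 620 nm.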
# [8] = qHTS assay to identify small molecule agonists of the sonic hedgehog signaling (Shh) pathway - cell viability counter screen (AID 1259366); further: potency means the concentration at half of the fitted maximal effect; nearly all actives have a fitted effect of over 50% in size
# In short: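 Cells are plated at 2,000 per well and left 4hr at 37C, 5% CO2 before compound addition. After 23hr of treatment, CellTiter-Fluor reagent is added for 1hr at 37C and fluorescence is measured.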
# [9] = Human pregnane X receptor (PXR) small molecule agonists, qHTS cell viability counter screen (AID 1346977); further: nearly all actives have a fitted effect of over 50% in size; further: potency means the concentration at half of the fitted maximal effect
# In short: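 Cytotoxicity counter screen run in the same wells as the PXR luciferase assay, using PXR-Luc HepG2 cells in charcoal-stripped serum medium. Viability: CellTiter-Fluor fluorescence after 24hr compound treatment.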
# [10] = qHTS assay to identify small molecule antagonists of the sonic hedgehog signaling (Shh) pathway - cell viability counter screen (AID 1259367); further: nearly all actives have a fitted effect of over 55% in size; further: potency means the concentration at half of the fitted maximal effect
# In short: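 After a 4 hr settling period, 3T3 Gli1-Luc cells were treated with DMSO-dissolved chemicals and conditioned medium, kept 24 hr at 37C in 5% CO2, and assayed for viability by CellTiter-Fluor fluorescence following 1 hr reagent incubation.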
# [11] = qHTS assay to identify small molecule antagonists of the androgen receptor (AR) signaling pathway - cell viability counter screen (AID 743033; further: nearly all actives have a fitted effect of over 45% in size)
# [12] = molecular target: Thyrotropin receptor (Homo sapiens) (UniProt P16473); assay: qHTS assay to identify small molecule antagonists of the thyroid stimulating hormone receptor (TSHR) signaling pathway (AID 1259385; calls by dose curve; further: potency means the concentration at half of the fitted maximal effect; nearly all actives have a fitted effect of over 20% in size); conditions: TSHR-HEK293 cAMP HTRF, TSH-stimulated antagonist mode; activity change, negative = inhibition: at 92.4 µM (top of the series)
# Chain of UniProt P16473 (P16473 whole entry, looked up): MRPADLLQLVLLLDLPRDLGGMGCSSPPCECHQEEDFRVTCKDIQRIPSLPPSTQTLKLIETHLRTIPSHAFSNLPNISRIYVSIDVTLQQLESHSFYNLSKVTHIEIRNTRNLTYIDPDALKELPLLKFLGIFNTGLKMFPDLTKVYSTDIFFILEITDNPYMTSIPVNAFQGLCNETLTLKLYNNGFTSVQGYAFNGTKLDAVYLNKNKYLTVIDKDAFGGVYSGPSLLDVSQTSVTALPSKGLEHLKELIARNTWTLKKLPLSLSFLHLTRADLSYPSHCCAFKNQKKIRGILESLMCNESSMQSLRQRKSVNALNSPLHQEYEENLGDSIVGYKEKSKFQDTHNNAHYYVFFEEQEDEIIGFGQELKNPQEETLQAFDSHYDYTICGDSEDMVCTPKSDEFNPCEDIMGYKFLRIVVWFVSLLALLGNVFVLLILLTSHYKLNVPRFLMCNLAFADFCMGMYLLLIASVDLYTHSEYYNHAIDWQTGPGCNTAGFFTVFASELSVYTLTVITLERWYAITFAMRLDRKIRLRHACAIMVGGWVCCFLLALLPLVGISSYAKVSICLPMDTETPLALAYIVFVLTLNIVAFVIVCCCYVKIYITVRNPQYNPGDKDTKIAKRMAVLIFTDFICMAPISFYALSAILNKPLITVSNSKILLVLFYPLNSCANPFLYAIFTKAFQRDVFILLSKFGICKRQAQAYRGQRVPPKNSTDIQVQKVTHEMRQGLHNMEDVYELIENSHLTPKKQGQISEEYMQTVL
# In short: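 TSHR-HEK293 cells were plated and held 18 h at 37C/5% CO2, then given compound plus Ro20-1724 and stimulated with TSH at 1.5 ng/mL final. After 30 min at room temperature, cAMP was detected with cAMP-d2/anti-cAMP-cryptate (1 h) by fluorescence.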
# [13] = qHTS assay to identify small molecule antagonists of the estrogen receptor alpha (ER-alpha) signaling pathway using the BG1 cell line (AID 743080; calls by dose curve;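 further: BG1 cells stimulated with 17beta-estradiol alongside compound; nearly all actives have a fitted effect of over 25% in size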; further: potency means the concentration at half of the fitted maximal effect); conditions: BG1Luc4E2 ERE-luciferase antagonist mode, luminescence; activity change, negative = inhibition: at 70.3 µM (top of the series) unless noted
# In short: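 Endogenous full-length ER-alpha in BG1-Luc-4E2 cells drives a stably integrated 4×ERE luciferase gene; compounds were tested against 17beta-estradiol over 21.5 h, with luminescence and multiplexed viability fluorescence recorded.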
# [14] = molecular target: Peroxisome proliferator-activated receptor gamma (Homo sapiens) (UniProt P37231); assay: qHTS assay to identify small molecule agonists of the peroxisome proliferator-activated receptor gamma (PPARg) signaling pathway (AID 743094; active means well fitted activation curve with a large enough effect in the signal ratio in the repeat runs, not every such curve was filed as active; inconclusive means weak or mixed curves, or effect the other way; inactive means no such curve, though single readings can be large or run the other way; the % refers to the signal ratio; further: potency means the concentration at half of the fitted maximal effect); conditions: HEK293H PPARg-UAS-bla, beta-lactamase FRET ratio, 17 h; activation: at 57 µM (top of the series) unless noted
# Chain of UniProt P37231 (P37231 whole entry, looked up): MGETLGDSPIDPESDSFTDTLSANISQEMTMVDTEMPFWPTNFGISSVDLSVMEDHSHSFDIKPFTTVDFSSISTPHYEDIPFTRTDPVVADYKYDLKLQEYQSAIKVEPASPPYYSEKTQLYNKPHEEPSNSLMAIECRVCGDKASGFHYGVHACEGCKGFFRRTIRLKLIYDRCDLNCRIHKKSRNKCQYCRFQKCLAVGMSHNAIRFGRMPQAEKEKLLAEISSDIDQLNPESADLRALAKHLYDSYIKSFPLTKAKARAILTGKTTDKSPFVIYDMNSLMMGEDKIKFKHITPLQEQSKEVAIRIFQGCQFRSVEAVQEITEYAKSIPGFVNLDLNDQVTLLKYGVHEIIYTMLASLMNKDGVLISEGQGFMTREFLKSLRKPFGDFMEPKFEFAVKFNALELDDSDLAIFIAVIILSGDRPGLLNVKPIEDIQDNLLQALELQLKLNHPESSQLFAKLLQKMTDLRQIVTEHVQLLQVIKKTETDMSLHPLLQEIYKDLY
# In short: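 Stably transfected HEK293H cells (GeneBLAzer PPARg UAS-bla) were incubated with test substances for 17 h at 37C after a 5 h pre-incubation; beta-lactamase activity was then detected by FRET substrate fluorescence.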
# [15] = qHTS assay to identify small molecule antagonists of the estrogen related receptor signaling pathway with the pleiotropic PPARgamma coactivator (PGC) from Tox21 10K library (AID 1224841; call rule not given here; further: potency means the concentration at half of the fitted maximal effect; actives are mostly falling curves and most rising ones were filed inactive; nearly all actives have a fitted effect of over 50% in size)
# In short: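 Compound exposure ran 18 hours at 37 C in PGC/ERR cells (2,000/well) that had first rested 6 hours in a 37 C/5% CO2 incubator. Luciferase activity was then detected with One-Glo after a 30-minute room-temperature step.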
# Tags describe the fitted curve by direction and shape or compound fluorescence and quenching.
compound,measurement,setting,value
Nc1cccc(Cl)c1,Potency,[1],"inconclusive: 69.4 µM [activator, single point] and inconclusive: 864 nM [activator, partial curve]"
same,Potency,[2],"inactive and inconclusive: 611 nM [cytotoxic, single point]"
same,Potency,[3],inactive
same,Potency,[4],"inconclusive: 27.3 µM [cytotoxic, single point]"
Cc1nc2ccccc2c(=O)n1-c1ccccc1Cl,Potency,[5],"inconclusive: 47.5 µM [cytotoxic, partial curve, poor fit]"
same,Potency,[2],active: 21.2 µM
same,Potency,[6],active: 16.9 µM
same,Potency,[7],active: 27.8 µM
same,Potency,[8],active: 10.6 µM
same,Potency,[9],"inconclusive: 26.7 µM [cytotoxic, partial curve]"
CN(C)NC(=O)CCC(=O)O,Potency,[10],inactive
ClCc1cccnc1,Potency,[11],inactive
same,Potency,[7],inactive
same,Potency,[12],"inconclusive: 15.1 µM [falling, single point]"
C=C(C)[C@@H]1CC=C(C=O)CC1,Potency,[13],inactive
same,Potency,[14],inactive
same,Potency,[7],"inconclusive: 45 µM [rising, partial curve, poor fit]"
NC(=O)CN1CCCC1=O,Potency,[14],"inconclusive: 5.74 µM [activator, partial curve, poor fit]"
COC(=O)c1ccc(CBr)cc1,Potency,[11],inactive
same,Potency,[13],"inconclusive: 7.79 µM [rising, full curve]"
same,Potency,[9],inactive
CCOP(=S)(OCC)Oc1nc(Cl)n(C(C)C)n1,Potency,[11],inactive
same,Potency,[12],"inconclusive: 2.43 µM [falling, single point]"
CCCCc1c(C)nc(NCC)nc1OS(=O)(=O)N(C)C,Potency,[13],inconclusive: 61.1 µM
same,Potency,[5],inconclusive: 68.6 µM [cytotoxic]
same,Potency,[1],"inconclusive: 30.6 µM [activator, partial curve, poor fit]"
same,Potency,[2],"inconclusive: 54.5 µM [cytotoxic, partial curve]"
same,Potency,[6],"inconclusive: 43.3 µM [cytotoxic, partial curve, poor fit]"
same,Potency,[15],active: 48.6 µM
same,Potency,[10],"inconclusive: 30.6 µM [cytotoxic, partial curve]"
same,Potency,[9],active: 61.1 µM
same,Potency,[4],active: 61.1 µM
